# In ChEMBL document CHEMBL4888484, “Replenishing the malaria drug discovery pipeline: Screening and hit evaluation of the MMV Hit Generation Library 1 (HGL1) against asexual blood stage Plasmodium falciparum ,using a nano luciferase reporter read-out” (2022):
# About 540 (0.36%) of roughly 150,000 compounds showed an effect of 50% or more. The list shows a part of the results.
# Test system: Plasmodium falciparum
# Assay: Primary screen in NF54 nanoGlo assay, in single point, at 2uM, 72h; a lower Z score goes with more inhibition
# Assay type: functional, Erythrocyte
# Details: timepoint 72 hour
Compound,% Inhibition [%],Z score
O=C(CN1CCOCC1)N1CCN(c2ncnc3cc(-c4ccc(F)cc4)sc23)CC1,-13,2.5
O=S(=O)(CC1CCOC1)N1CCC[C@@H]1CCc1ccccn1 (stereo partly drawn),-5,0.84
Cc1cccc(-c2nc(N)n(C(=O)c3cccc4ccccc34)n2)c1,-11,1.76
CC(=O)NCC1CN(C(=O)[C@H]2C3CCC(CC3)[C@@H]2C(F)(F)F)CCO1 (stereo partly drawn),-13,2.43
Cn1c(=O)c2sc(N3CCCC3)nc2n(CC(=O)N2CCc3ccccc32)c1=O,-6,0.93
CCO[C@@H](C)c1nc(CONC(=O)C(C)(C)C)cs1,-1,0.07
CCN(C)C[C@H]1CCN(C(=O)CN(C)C(C)C)C1,-10,1.39
C[C@H]1CN(C(=O)c2ccc(C(N)=O)cc2)C[C@@H]1C(=O)OC(C)(C)C,-6,0.78
CCCOc1ccc(CN2CCC[C@H]2c2c(C)noc2C)cc1,13,-1.79
Cn1cc(C(NC(=O)CCc2cn3ccccc3n2)[C@H]2C[C@@H](O)C2)cn1 (stereo partly drawn),-14,2.38
CCCc1[nH]nc(-c2ccccc2OC)c1NC(=O)c1cccc(F)c1,-7,0.88
CCCn1c(=O)c(-c2nc(-c3ccc(F)c(F)c3)no2)c(O)c2ccccc21,9,-1.17
C=CCNC(=O)N(CC(C)C)[C@@H](CC)c1ccccc1,-2,0.3
CC(C)c1noc(CNC(=O)NCc2ccco2)n1,-7,0.75
CNC(=O)c1ccc(CN2CCC[C@](CC=C(C)C)(C(=O)O)C2)cc1,-7,1.28
CCN(CC)[C@H]1CCN(C(=O)c2cc(Cl)ccc2OC2CCN(C(C)=O)CC2)C1,-9,1.33
CCOc1ccccc1C(=O)N1CCC[C@H]2CN(C)C[C@H]21,-7,0.91
Cc1ncc(C(C)NC[C@@H]2CCCN2CC(C)C)c(C)n1 (stereo partly drawn),-5,0.57
O=C1NC(=O)[C@H](CCC(=O)N(Cc2ccc(F)cc2)C2CCCCC2)N1,3,-0.53
Cc1cc(C(=O)N[C@@H]2CC=CCC2)no1,-6,0.98
COc1ccccc1CNc1c(-c2nc(C(C)C)no2)cnc2nc(C)ccc12,-15,1.8

Compound,% Inhibition [%],Z score
O=C(c1coc(COc2ccc3c(c2)OCO3)n1)N1[C@@H]2CC[C@H]1C[C@@H](O)C2,-13,1.99
Nc1ccnc(N2CCN(Cc3cncn3C3CC3)C[C@H](O)C2)n1,1,-0.16
CCc1nc(CNc2ncnc3[nH]cnc23)no1,-1,0.21
Cc1nc2c(NC[C@H]3CCCN(S(C)(=O)=O)C3)ncnc2o1,-13,2.27
CCn1cc(CNC(=O)c2cccc(S(=O)(=O)N[C@H]3CCOC3)c2)cn1,-5,0.97
Nc1ccc(S(=O)(=O)CCCN2CCCC2)cc1,-10,1.24
CN(Cc1ccsc1)C(=O)c1ccc(-n2cnnn2)cc1,-2,0.34
N#Cc1c(-c2ccc(F)cc2)ccnc1Oc1ccccc1,-8,1.07
Nc1cccc(-c2nc(Cn3cncn3)n[nH]2)c1,0,-0.07
Cc1cc(N2CC[C@](C)(O)[C@H](O)C2)nc(N2CCOCC2)n1,6,-0.98
Cc1cccc(C)c1NC(=O)N1CCC2(CC1)C(=O)N(CC(=O)N1CCCCC1)CN2c1ccccc1,2,-0.16
CCOc1ccc2nc(-n3nc(C)c4c3NC(=O)C[C@@H]4c3cccnc3)sc2c1,14,-1.73
CCCC[C@@]1(O)COC2(CN(C(=O)c3noc(C)c3COC)C2)C1,-7,1.05
Cc1ccc(CNC(=O)[C@]2(C)CCCCC(=O)N2)cc1,-12,1.32
OC[C@@H]1[C@@H](Cc2ccnc(-c3cccnc3)n2)[C@H](NCc2ccccc2F)C[C@H]1O,-6,1.11
CC(=O)N(c1ccccc1)[C@H]1C[C@@H](C)N(C(=O)C(F)(F)F)c2ccccc21,38,-1.27
Cc1ccccc1Cn1cnc2c1c(=O)n(CCc1ccccc1)c(=O)n2-c1ccc(Cl)cc1,-14,1.71
Cc1ccccc1OCC(=O)Nc1cnn(C)c(=O)c1N1CCOCC1,-4,0.73
C[C@H](Nc1ncnc2ncccc12)c1ccc(Cl)c(Cl)c1,-7,1.22
Cn1cnnc1[C@H]1CCCN(c2ncncc2-c2ccccc2)C1,-14,1.71
CCc1ccc(-c2nc(C)c(C(=O)N3CC[C@@H](N)C3)s2)cc1,-11,1.8

Compound,% Inhibition [%],Z score
CNC(=O)c1[nH]nc2c1CN(C(=O)c1ccc(OC)o1)CC2,-9,1.13
c1c[nH]c(-c2cn(Cc3n[nH]c4c3CCCCC4)nn2)n1,-11,1.27
CS(=O)(=O)c1ccc(-c2c(-c3ccccc3)ncn2Cc2ccon2)cc1,2,-0.17
COc1ccc2c(c1)CN(C(=O)c1ccnn1C)[C@H](c1ccccc1)C2,2,-0.22
CC(C)(C)OC(=O)NC[C@H]1CCN(C(=O)c2n[nH]c3ccccc23)C1,-4,0.56
CCn1nccc1CNC(=O)N1CCC[C@H](C2CCCC2)C1,-3,0.52
C[C@H](NC(=O)NC1(C(N)=O)CCCC1)c1cccc2ccccc12,-10,1.03
O=S(=O)(Nc1noc(C2CC2)n1)c1c[nH]c(C(F)(F)F)c1,2,-0.28
CC1CN(c2ccc3ccccc3n2)CC1N1CCOCC1 (stereo not drawn),1,-0.11
O=C(c1cc2ccccc2s1)N1C2CCC1CC(F)C2 (stereo not drawn),-18,2.12
O=C(O)Cc1ccc(-c2cccc3c2CCNC3)nc1,3,-0.62
Cc1n[nH]c(C)c1CCn1cc(-c2cccc(C#N)c2)nn1,-5,1.03
CC1c2ccccc2OC1C(=O)Nc1csc(-c2ccncc2)n1 (stereo not drawn),-8,1.15
Cc1ccc(F)cc1C(=O)Nc1ccc(O[C@H]2CCOC2)cc1,-5,0.84
CC[C@@H](C(=O)NCc1ccco1)n1c(Cc2ccc(Cl)c(Cl)c2)nc2ccccc21,-5,0.7
O=C(NCc1cn(-c2ccsc2)nn1)NCc1cccs1,11,-1.78
COCCCNC(=O)N(C)Cc1ccc(OC)c(C)c1,-3,0.41
O=C(Cn1ccc2ccccc2c1=O)N(CC(F)(F)F)C1CCC1,-7,1.06
O=c1[nH]cc(-c2nc(Cc3cccc(Cl)c3)nn2CCO)cc1Cl,9,-1.53
Cn1ccc2c(-c3cncc(C(=O)N4CCCCC4)n3)ccnc21,9,-1.18
c1ccc(-c2nc(-c3nccn3CCCn3cccn3)co2)cc1,-6,0.81

Compound,% Inhibition [%],Z score
CC(C)CNC(=O)c1cc2cc(NS(=O)(=O)c3ccc(C(C)(C)C)cc3)ccc2n1Cc1ccc(C(C)(C)C)cc1,2,-0.24
CC(C)CC(C)OC(=O)N1CCC(c2nncn2C)C1 (stereo not drawn),-11,1.12
Cc1nnnn1CC(=O)NC[C@@H]1COc2ccccc2C1,-4,0.49
CC[C@H](O)c1cc2n(n1)CCN(c1cc(C)nc3ccc(F)cc13)C2,-10,2
CC(=O)Nc1cc(-c2nc(-c3ccc4c(c3)ncn4CCC(=O)N3CCCCCC3)no2)ccc1C,-20,2.58
CCN1CCN(C2(C(=O)N3CCC[C@H](COC)C3)Cc3ccccc3C2)CC1,-12,1.4
Cc1c(-c2ccccc2)n[nH]c1-c1nc(C(C)C)n[nH]1,-7,0.84
CC1=CCC2COC(c3ccccn3)C1C2 (stereo not drawn),-11,1.43
CC(=O)NCCC(=O)Nc1cc(C)nn1[C@@H](C)C1CC1,0,0.07
C[C@@H](CNC(=O)c1ccsc1)NC(=O)OC(C)(C)C,-1,0.05
COC(CNC(=O)c1ccc(-n2cncn2)nn1)OC,-15,1.89
CC(NC(=O)N[C@@H]1CCc2cc(F)ccc21)c1ccn(C)n1 (stereo partly drawn),1,-0.22
O=C(NCC(F)F)c1ccc2c(c1)n(CC1CC1)c(=O)n2C1CCCCC1,26,-3.33
COCCn1cc(N[C@@H](C)c2nnc(-c3ccc(C)cc3)o2)cn1,-4,0.5
Cc1cccc(CN2CCC[C@@](O)(CNC(C)(C)c3ccccc3)C2=O)c1,-5,0.57
NC(=O)c1ccc(-c2nc3c(c(=O)[nH]2)CCN(c2ncc(F)cn2)C3)cc1,-6,0.56
CCc1nc(C)c([C@H](C)N(C)CCS(=O)(=O)CC)s1,3,-0.48
CCOc1ccc(NC(=O)C2CCN(c3nc4nc[nH]c(=O)c4s3)CC2)cc1,-27,2.35
Cc1cscc1C(=O)N1CCC2CCC(C1)N2C(C)C (stereo not drawn),-7,0.94
COc1ccc(CN2C[C@@H]3Oc4ncccc4C(=O)N(C)[C@@H]3C2)cc1,-3,0.37
CN(Cc1nc(-c2ccccn2)no1)C[C@]1(O)CCCN2CCCC[C@@H]21,-5,0.76
